{"source": "patent US20170368082A1", "about": "“FORMULATIONS OF BRINCIDOFOVIR” (priority 2016, published 2017)", "experiment": "Phase 2 toxicokinetics of brincidofovir and cidofovir in plasma", "format": "in vivo, Sprague-Dawley CD rats", "conditions": "brincidofovir 15 mg/kg 2-h IV infusion, BLQ imputed as zero", "procedure": "Plasma samples (108) were collected 2 hours following the initiation of dosing on Day 1 and Day 7 (Group 1), or at 1, 2, 8, and 24 hours following the initiation of dosing on Day 1, and prior to administration and at 2, 8, and 24 hours following the initiation of dosing on Day 7 (Groups 2 and 3), and analyzed to determine the concentrations of brincidofovir and the metabolite, cidofovir), by LC/MS/MS.\nApproximately 0.4 mL of whole blood was obtained via the tail vein from each animal at each time point. Animals were not fasted prior to blood collection. Blood was collected into tubes containing K2EDTA anticoagulant and placed on wet ice in an upright position, per facility SOP prior to processing. Plasma was separated by centrifugation (10 minutes at approximately 2000 g, at approximately 2-8° C.). Approximately 0.10 mL of plasma was transferred into a single cryotube appropriately labeled with study number, animal number, time point, date of sampling and sample type. Remaining plasma was transferred into a second cryotube and retained as a backup sample. Plasma frozen at approximately −80±10° C. within approximately 2 hours after collection of each blood sample until analysis. Animals were euthanized (CO2 inhalation) after the final blood collection.\nIn general, TK parameters were estimated using mean plasma concentrations of brincidofovir and cidofovir derived from the composite blood sampling design using Phoenix WinNonLin (V 6.3).\nA composite blood sampling design was used such that each rat was sampled twice per sampling day. Blood was collected via tail vein from unanesthetized animals into tubes containing anticoagulant and placed on wet ice in an upright position. Animals were not fasted prior to blood collection. Plasma was separated by centrifugation (for 10 minutes at approximately 2000 g, at approximately 2-8° C.), and transferred into individually labeled cryotubes. All cryotubes containing the collected plasma samples were appropriately labeled as to study number, animal number, time point, date of sampling and sample type. All plasma samples were obtained and frozen at approximately −80° C. (±10° C.) within approximately 2 hours after collection of each blood sample until analysis.\nRat plasma bioanalysis was conducted by Pyxant Laboratories. Plasma samples were analyzed for concentrations of brincidofovir and cidofovir using a method based upon protein precipitation extraction followed by LC-MS/MS analysis; calibration ranges for brincidofovir and cidofovir were 1.00-1500 ng/mL and 5.00-750 ng/mL, respectively, (Pyxant study number 3025) for a 50 μL aliquot of rat plasma. Sample analysis for ISR was not performed as part of this non-GLP study.\nFor the generation of Mean Profiles, all sample concentrations that were below the limit of quantitation (BLQ) were set to 0.\nAll pharmacokinetic parameter estimates were completed using a Non-Compartmental Model (Model 200-202 for IV infusion administration). The AUClast and AUCinf were calculated using the linear up log down trapezoidal rule.", "note": "Values joined by “and” are separate entries in the source; they are usually repeats but may differ in a detail not shown here. Identical values can stand only once. Further values from the same series stand in other lists.", "data": [{"smiles": "Nc1ccn(C[C@@H](CO)OCP(=O)(O)O)c(=O)n1", "note": "[Cidofovir]", "values": [{"measurement": "Imputed Concentration, Mean", "setting": "female rats, Day 7, 8 h", "result": 43.6}, {"measurement": "Imputed Concentration, individual animals", "setting": "female rats, Day 7, 8 h", "result": 40.2}, {"measurement": "Imputed Concentration, Mean", "setting": "female rats, Day 7, 24 h", "result": 20.3}, {"measurement": "Imputed Concentration, individual animals", "setting": "female rats, Day 7, 24 h", "result": "30.0 and 7.10 and 23.8"}, {"measurement": "Imputed Concentration, Mean", "setting": "male rats, Day 7, 8 h", "result": 32.8}, {"measurement": "Imputed Concentration, Mean", "setting": "male rats, Day 7, 24 h", "result": 21.7}, {"measurement": "Imputed Concentration, individual animals", "setting": "male rats, Day 7, 24 h", "result": "27.2 and 17.9 and 19.9"}]}]}
